Data: publication PMC6919601, “Identification of Plasmodium dipeptidyl aminopeptidase allosteric inhibitors by high throughput screening” (PLoS ONE, 2019)
The campaign covered roughly 110,000 compounds. About 230 (0.21%) showed an effect of 50% or more. The list shows a part of the results.

Molecular target: DPAP1 (Plasmodium falciparum, UniProt Q8IIJ9)
Experiment: primary screen, percent inhibition; read by cleavage of a fluorogenic dipeptide substrate; higher = more effect of the substance
Parameters: species or system P. falciparum D10 trophozoite lysates; single well
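Further: 30 min substrate incubation versus DMSO and 10 µM JCP410 controls.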

DPAP1, sequence (Q8IIJ9 whole entry, looked up): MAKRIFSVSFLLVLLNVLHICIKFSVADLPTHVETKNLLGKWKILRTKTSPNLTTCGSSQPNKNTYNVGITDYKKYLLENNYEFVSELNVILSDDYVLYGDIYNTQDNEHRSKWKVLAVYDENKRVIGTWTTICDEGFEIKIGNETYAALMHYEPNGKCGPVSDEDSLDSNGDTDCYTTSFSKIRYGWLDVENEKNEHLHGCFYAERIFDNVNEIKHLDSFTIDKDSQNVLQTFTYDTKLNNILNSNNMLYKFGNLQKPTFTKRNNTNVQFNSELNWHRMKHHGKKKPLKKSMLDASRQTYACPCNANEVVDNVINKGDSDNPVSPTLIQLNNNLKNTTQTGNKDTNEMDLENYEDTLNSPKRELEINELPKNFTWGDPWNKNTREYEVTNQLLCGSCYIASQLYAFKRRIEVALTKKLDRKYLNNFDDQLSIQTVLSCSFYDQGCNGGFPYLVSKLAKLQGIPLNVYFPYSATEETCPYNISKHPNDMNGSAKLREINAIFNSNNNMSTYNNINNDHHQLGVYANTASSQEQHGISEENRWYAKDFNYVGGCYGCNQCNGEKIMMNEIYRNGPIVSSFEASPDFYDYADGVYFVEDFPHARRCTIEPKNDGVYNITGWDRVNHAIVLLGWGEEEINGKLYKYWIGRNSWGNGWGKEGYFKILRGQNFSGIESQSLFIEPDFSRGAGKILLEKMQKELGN

| Structure (SMILES) | % Inhibition @ 10 uM [%] |
| --- | --- |
| CCCc1ccc(OCC(=O)Nc2cc([N+](=O)[O-])ccc2C)cc1 | 1.33 |
| COc1cc(C)c(S(=O)(=O)N2CCN(Cc3ccccc3)CC2)cc1C(C)C | 3.68 |
| CCOc1cc2c(cc1OCC)C(c1ccc(O)c(OC)c1)NCC2 (centres unmarked) | 0.83 |
| CCOc1ccc(-n2c(C)cc(/C=C3\C(=O)N(CC4CCCO4)C(C)=C3C(=O)OC)c2C)cc1 (centres unmarked) | 3.47 |
| Cc1c(C(=O)Nc2ccncc2)sc2nc(-c3ccccc3)cn12 | 1.35 |
| C=CCOc1ccccc1CNC(C)(C)CO | 0.907 |
| COc1cc(/C=C2\C(=O)ON=C2c2ccccc2)cc(Br)c1O | 3.54 |
| O=C(O)CC/N=C(\NS(=O)(=O)c1ccccc1)c1ccccc1 | -7.8 |
| O=C(NCc1cccs1)c1nn2c(C(F)(F)F)cc(-c3ccccc3)nc2c1Cl | -2.2 |
| CCOC(=O)N1CCN(C(=O)CCc2nc3ccccc3[nH]2)CC1 | 0.166 |
| CC1CCN(c2nc(Cl)nc(NC(C)(C)CO)n2)CC1 | -1.85 |
| Cc1ccc(NC(=O)c2ccc(C)c(C)c2)c(C(=O)O)c1 | 3.04 |
| CCOc1ccc(CCNC(=O)c2cc(S(=O)(=O)N3CCOCC3)cn2C)cc1OCC | -5.99 |
| COc1ccc(-c2cc(-c3cc(Cl)ccc3O)[nH]n2)cc1 | -0.171 |
| COc1ccc(N(CC(=O)Nc2ccccc2Cl)S(C)(=O)=O)cc1 | -15.1 |
| COc1nc(C)nc(NC(=O)NC(=O)c2c(Cl)nc(C)c(Cl)c2C)n1 | 1.62 |
| COc1ccc(-c2nc(-c3ccc(Cl)cc3)no2)cc1 | -0.267 |
| CCC(C(=O)NCCOC)n1cc(C=O)c2ccccc21 (centres unmarked) | -8.34 |
| COc1ccc(-c2nc3ccccc3o2)cc1 | -0.414 |
| O=C(CCc1ccccc1)Nc1cc(Cl)ccc1Cl | -3.03 |
| COc1ccc(C2C3=C(O)CC(C)(C)CC3=Nc3nc(SC)nn32)c(OC)c1OC (centres unmarked) | 0.0842 |
| COc1cc(NC(=O)c2cnn3c2NC(c2ccco2)CC3C(F)(F)F)c(OC)cc1Cl (centres unmarked) | 4.67 |
| NC(=O)c1c(NC(=O)c2ccc(Br)cc2)sc2c1CCCCC2 | 22.6 |
| COc1ccc(CC(=O)Nc2c3c(nc4ccccc24)N(Cc2ccccc2)CC3)cc1OC | -2.87 |
| CC(C)c1ccc(-c2c(NCc3ccccc3Cl)c(=O)c2=O)cc1 | -7.52 |

| Structure (SMILES) | % Inhibition @ 10 uM [%] |
| --- | --- |
| COC(=O)C1=CN(C(C)C)C=C(C(=O)OC)C1c1cc(OC)c(OC)cc1OC | 1.86 |
| Cc1ccc(-n2nnc3c(=O)n(CC(=O)NCc4ccc5c(c4)OCO5)cnc32)cc1 | 2.85 |
| Cc1ccc(-c2nc(-c3cccnc3)no2)cc1 | 6.86 |
| O=C(c1ccc2nc(N3CCCCC3)sc2c1)N1CCc2ccccc2C1 | -0.637 |
| O=C(CSCCc1ccccn1)Nc1cccnc1Cl | -3.21 |
| Cc1cc2c(c(=O)o1)C(c1ccc(F)c(F)c1)C(C#N)=C(N)O2 (centres unmarked) | 0.847 |
| COc1ccccc1N1CCN(C2CCN(Cc3ccccc3)CC2)CC1 | -3.27 |
| O=C(NC1CCCC1)C1CCN(S(=O)(=O)c2ccccc2)CC1 | -1.92 |
| CN(C(=O)c1cnc2ccc(S(=O)(=O)N3CCC4(CC3)OCCO4)cc2c1O)C1CCCCC1 | -7.57 |
| COc1ccc(Oc2nc3ccccn3c(=O)c2/C=C(\C#N)C(=O)N2CCOCC2)cc1 | 4.06 |
| Cc1ccc(Cn2nc(C)c(NC(=O)C(F)(F)F)c2C)cc1 | 6.1 |
| O=C(Nc1nc2ccccc2s1)c1cc2c(s1)-c1ccc(Cl)cc1S(=O)(=O)C2 | -4.24 |
| Cc1cccc(-n2nc3c(c2NC(=O)c2ccc(C(C)(C)C)cc2)CS(=O)(=O)C3)c1C | 10.3 |
| CCOc1ccc2nc(SCc3c(C(=O)OC)nnn3-c3nonc3N)sc2c1 | 19.4 |
| COc1ccccc1N(CC(=O)N1CCc2ccccc2C1)S(C)(=O)=O | 2.44 |
| Cc1c(CNCCC2=CCCCC2)c(C(=O)O)c(C)n1Cc1ccccc1 | 4.53 |
| O=C(CCn1c(=O)c2cccn2c2cccnc21)N1CCN(c2ccccn2)CC1 | 7.87 |
| Cc1cc(C)n(-c2ccc(C(=O)NC(C)C)cc2)n1 | 2.08 |
| CN(CCNC(=O)CCCN1C(=O)C(c2ccccc2)Oc2cccnc21)C1CCCCC1 (centres unmarked) | -2.68 |
| CC(C)(C)c1ccc(C2C(C#N)=C(N)Oc3[nH]nc(-c4cccnc4)c32)cc1 (centres unmarked) | 0.722 |
| CCCCN1CN=C(Nc2nc(C)c3cc(OCC)ccc3n2)NC1 | -3.13 |
| CC(C)(C)c1cc(C(F)(F)F)nc(N)n1 | -1.59 |
| CC1CC(C)CN(C(=O)C(Cc2ccccc2)n2cccc2)C1 (centres unmarked) | -2.42 |
| O=C(CCc1nnc2ccc(N3CCOCC3)nn12)N1CC=C(c2ccccc2)CC1 | 0.842 |
| O=C(CN1C(=O)S/C(=C/c2c[nH]c3ccccc23)C1=O)N1CCOCC1 | 19.6 |
